Laboratory results taken from the supplement of paper PMC6531468.
The list shows a part of the results. These are enrichments in a pooled selection; single values are uncertain. Each score is taken over the longer molecules that contain the sequence shown.

target: IMP3 full-length (UniProt O00425); assay: 6-mer SELEX enrichment z-score vs GST control; IMP3 is the RNA-binding protein IGF2BP3; higher = more enriched by binding; settings: construct: FL IMP3 (1-579); SELEX round: R4
Method: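 SELEX-seq with GST-tagged full-length IMP3 and an N40 RNA pool, round 4. Each 6-mer is scored as an enrichment z-score of sequence tags containing it, normalised to the matching GST SELEX round. RNA written as DNA (T = U).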

Chain of UniProt O00425 (O00425 whole entry): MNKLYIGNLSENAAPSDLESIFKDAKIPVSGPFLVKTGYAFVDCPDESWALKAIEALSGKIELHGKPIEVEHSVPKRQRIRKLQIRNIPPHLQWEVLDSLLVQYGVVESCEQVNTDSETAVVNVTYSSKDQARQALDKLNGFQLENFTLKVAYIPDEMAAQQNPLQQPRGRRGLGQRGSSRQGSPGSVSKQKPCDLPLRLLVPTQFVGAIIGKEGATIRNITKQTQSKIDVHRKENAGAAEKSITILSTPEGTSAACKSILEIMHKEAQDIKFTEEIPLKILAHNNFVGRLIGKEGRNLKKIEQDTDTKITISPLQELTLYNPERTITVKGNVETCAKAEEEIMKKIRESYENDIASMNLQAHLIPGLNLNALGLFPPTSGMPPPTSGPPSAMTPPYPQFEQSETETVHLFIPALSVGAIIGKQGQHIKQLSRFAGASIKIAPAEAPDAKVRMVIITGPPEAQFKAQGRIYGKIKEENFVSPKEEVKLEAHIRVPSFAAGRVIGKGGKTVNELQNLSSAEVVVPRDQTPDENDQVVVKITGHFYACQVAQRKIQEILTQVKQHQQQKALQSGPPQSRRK

| Sequence | 6-mer SELEX enrichment z-score |
| --- | --- |
| GCACTA | 0.827 |
| ATACGC | 0.378 |
| TACCGA | -1.06 |
| AACTGT | -0.414 |
| AGATGC | -0.33 |
| ACTTCG | -0.237 |
| ATTCGA | -0.413 |
| CTGCCT | -0.416 |
| TTAACA | 0.306 |
| TGGGTC | 0.309 |
| ATGCGG | 0.406 |
| GAAGAC | -0.792 |
| TTTTAA | 0.047 |
| AGATAC | -0.112 |
| TCTCGC | 0.218 |
| ATGTTG | -0.071 |
| CAATAC | 1.14 |
| GATCTG | -0.073 |
| TAGAGT | -0.038 |
| TTGCGA | -0.616 |

| Sequence | 6-mer SELEX enrichment z-score |
| --- | --- |
| GCGCAT | 1.21 |
| CAAAGC | -0.819 |
| CCTACT | -0.579 |
| TGGAAT | -0.243 |
| GACGCA | 0.235 |
| TTCATA | 1.65 |
| TTGTAA | -0.341 |
| CAATCG | -0.027 |
| AAAATG | -2.04 |
| ACAATG | 0.602 |
| TCGAGT | -0.272 |
| CCCATG | -0.601 |
| TCGCGT | -0.118 |
| CGATAT | -0.115 |
| AGTGCT | -0.055 |
| CTAGAT | -0.146 |
| TAACAC | 0.66 |
| GATTAT | -0.019 |
| CTTGTT | -0.09 |
| CGGCCT | 0.826 |
